In publication PMC12136788:
This is one part of the list.

B1: chr1:171510215:171510216:+_ENSG00000117523_ENST00000367742|hu_hu|motif|central (ssRNA)
RNA: GGGAGUUCUACAGUCCGACGAUCAGGAUAAUCUCGAGUGUGUCCCCUACCACCCCUGCCACGCCCUCCAUAAGAACCUCGGUAGCUUCGACCUCUGGAGUAAUAUUCACCUCGGCCUCGACCUCUGUAUCCUUGAUCUGGAAACAACAGAGGAUUGAGCAUCA
B2: 143143495_143143615_2184_3pUTR_ENSMUSG00000029578_ENSMUST00000036872|mouse|control|control (ssRNA)
RNA: GGGAGUUCUACAGUCCGACGAUCCCAAGUUCACCUGUCAGAAGAGAAGGCACAGAGAGCAGAAACUGCCCCUCUCCCUCUCAAGAUGCCCAUGGAGACUAAGACCCAGAACAACAGUCCCCCCGUGGAGGAAGCUAGUCCCAGCAACAGAGGAUUGAGCAUCA
B3: chr1:225611761:225611762:-_ENSG00000143815_ENST00000272163|hu_mus|hu_hu_hu_mus_True|48_88 (ssRNA)
RNA: GGGAGUUCUACAGUCCGACGAUCCCAGGCCAUCGGCCUCUGACCACUUCACCAUCGACAAACUUCCUACUUGGCAUUUUCUAAAAUUAACCUGCGCGCGCUCCGGCGGGAACUCCAGCCACUCCAGGACAGUCACCAGCAGCCCAACAGAGGAUUGAGCAUCA
B4: chr2:198267338:198267339:-_ENSG00000115524_ENST00000335508|hu_mus|motif|central (ssRNA)
RNA: GGGAGUUCUACAGUCCGACGAUCAAUGAUUUCAACCAAACUUCUGAGAUGUGGCAAGAUAGCACAGCCCAUGAGAAUGGCGGUCUGUUGUACAAUCUUAAUACCAGUGUGCCUCGCUUGCCAAGACUUCUUGCUUUUGCACACCAACAGAGGAUUGAGCAUCA
B5: chr7:140404665:140404666:+_ENSG00000090266_ENST00000247866|hu_hu|hu_hu_hu_mus_False|28_58 (ssRNA)
RNA: GGGAGUUCUACAGUCCGACGAUCUGCUCCUACUCGUCCAGAGAGUUUACAGUGUCAGUCCUCGUCAUCAGGAGGGAUACCUAAUUCUUCAUCUGUCCACUGUGAAGGAUCAGGAUAUGAAAAGUGACCCAGCACAGCAUCCGACAACAGAGGAUUGAGCAUCA
B6: 55528378_55529092_5178_CDS_ENSG00000115355_ENST00000336838|human|control|control (ssRNA)
RNA: GGGAGUUCUACAGUCCGACGAUCACCUUGUGGACUUAUGUCUUCAAAGGAUGUAGUAUCUUUAUUAUUAACCAACUGCUUGGAUCUGAAGCCUGCAGAAGAGUUGACAGUUGAAAAGUUGAUGGCUGUAGUAGAGAAGGCCAUCAACAGAGGAUUGAGCAUCA
B7: 54934717_54934837_312_5pUTR_ENSG00000187735_ENST00000521604|human|control|control (ssRNA)
RNA: GGGAGUUCUACAGUCCGACGAUCCUGGCAAGGGGAAGUGGGCGAAGCUGGAGCGGAAGACACAGCAGGAGCGACCCCCGGCGCGCAGCAACCCCCACCACCGCAGGCCCGGGCCUAGGCCCCCUUCCUUACGAACGAAGCCCGCAACAGAGGAUUGAGCAUCA
B8: 103192919_103193039_1585_3pUTR_ENSG00000089902_ENST00000570597|human|control|control (ssRNA)
RNA: GGGAGUUCUACAGUCCGACGAUCCUGGGAAGUGGCGCCAACAUGGAGGAACGAGCAAAGAAUUAAGGCAGAUGGAGCACAGGACUGGAAGUAUAUGCCUUUUUUGGUAAUAGCUGCUUGUCCAGAGAGAUGUGAUGCAGAUGGCAACAGAGGAUUGAGCAUCA
B9: chr8:104063288:104063289:+_ENSG00000155097_ENST00000518738|hu_mus|FALSE|FALSE (ssRNA)
RNA: GGGAGUUCUACAGUCCGACGAUCUAUGUAAGUAACCAAGUCAACUCCGCUGGCCAGCAAGUUCUCCUGAACUUUAUCUUUGCUGUCCUCCAGCACAUCAGCCAUGUACUGAGCCACUUUCUUGACCACACCUUCUACAAAUGCCAACAGAGGAUUGAGCAUCA
B10: chr16:94664741:94664742:+_ENSMUSG00000040785_ENSMUST00000117648|mus_hu|mus_mus_mus_hu_False|18_98 (ssRNA)
RNA: GGGAGUUCUACAGUCCGACGAUCUGGUACUGAUCUUUGCAUUGGAUAUUCAGGAGAAAGGCUGGCCAAGGGUGUAUAUAUGCUGGUGUACUGGGGCAAACCUGGUAACACGUUUAUGUACGCUGGUGGUGUCUGGGUGAUAUCCAACAGAGGAUUGAGCAUCA
B11: chr6:40197388:40197389:+_ENSMUSG00000057716_ENSMUST00000061740|mus_mus|mus_mus_mus_hu_False|38_58 (ssRNA)
RNA: GGGAGUUCUACAGUCCGACGAUCGAGACACUGGGGUGGAUUUAUUCCACCUCUGUUUGGGUGCUAGCCACUAAGACAGCUAUUUUGGGAUUCAUGGCCUUGAAGAUCAAGAGGGAAAGGAAGAGGAUGGAAAGAGUCAAGAGUCAACAGAGGAUUGAGCAUCA
B12: chr6:150114741:150114742:+_ENSG00000120265_ENST00000367380|hu_hu|motif|central (ssRNA)
RNA: GGGAGUUCUACAGUCCGACGAUCCCCUGAAGACAGAAGUGUUGGAUCGUCCUUCCUGACAUUAUUUACUGAGUCAUCGGCGGGCUCUUUAAUGUGAUCAAUUCCUAUGACUUUUCCAGUACAUCCAACCAUACGUGCAAAACACAACAGAGGAUUGAGCAUCA
B13: 108516817_108516937_3276_CDS_ENSMUSG00000032846_ENSMUST00000105097|mouse|control|control (ssRNA)
RNA: GGGAGUUCUACAGUCCGACGAUCGGUGGUCAGGGUGCACCUGCGCAAAAUGUCCGACAGUACCGUUGCGCAUUUGACGCUCUUAACCACCAGAGGUAUUAUAGCUGCUAGCUCAUUCUUACCGAGGGAGUGACUAAGCGCACACAACAGAGGAUUGAGCAUCA
B14: chr6:136600977:136600978:-_ENSG00000029363_ENST00000527536|hu_hu|motif|central (ssRNA)
RNA: GGGAGUUCUACAGUCCGACGAUCCGAGACCUAGAACUGUAUCGCUUCUUUCUAGAAUGAGAUCUUGAUCUUGAUCGAGAACGGGACUGUGAUCUAGACUUUGACCUUGAAGAAUGUGAUCUAGAAUUGGAGCGACCCAUUUCUCAACAGAGGAUUGAGCAUCA
B15: chr3:176740097:176740098:-_ENSG00000177565_ENST00000430069|hu_mus|hu_hu_hu_mus_True|1_8 (ssRNA)
RNA: GGGAGUUCUACAGUCCGACGAUCUGUUUUGUAUACCACAAAAGGAGGCACUUUCAGUAUCUGCAAAAGGUGUUUAGUCCUAAAACAUACUCACCUAGAGGAUAACUCAGGAAAACAAUCUGUUACACUAGUAUCUAUUAGGAACAACAGAGGAUUGAGCAUCA
B16: chr7:108213676:108213677:+_ENSG00000128590_ENST00000249356|hu_hu|motif|central (ssRNA)
RNA: GGGAGUUCUACAGUCCGACGAUCUCCAUGAAAUCUAUUUUCAGUCUGUACUGUAUGCUGAUUGGUAGAGUCAAAACCACGGAAAGAAAACAUUUUCUCCAUAUCUUCAAACAUGUCAUCAAAUAAUCCACCUCCAAAAGAAAACAACAGAGGAUUGAGCAUCA
B17: 56480571_56481790_460_3pUTR_ENSG00000167005_ENST00000300291|human|control|control (ssRNA)
RNA: GGGAGUUCUACAGUCCGACGAUCUCUUCUCCUGGGUUAAGUUCACCACCAGGUAGUUUGAAGAAAGUUGUUCCCAGCUGCAGCAGUAACACAUGGGGUAGCCGGUGCUCAUGUACAAUCAGAACCCCUUCUACAGUCCUCCUCCAACAGAGGAUUGAGCAUCA
B18: chr12:39756943:39756944:-_ENSG00000139116_ENST00000544797|hu_mus|hu_hu_hu_mus_False|78_98 (ssRNA)
RNA: GGGAGUUCUACAGUCCGACGAUCGGUUUGGCUGUUACCCCCGAGGGAAUCCUGCAAUAGUCUUGUUAGCUUAGAGUCUCUGUAAGGGACAUGGGUGGCUCUCUUGCUCUUGUCCCCCAAGGCGCUGAUUACAUUCCCAAGAGCCAACAGAGGAUUGAGCAUCA
B19: chr11:98018192:98018193:-_ENSMUSG00000018160_ENSMUST00000107545|mus_mus|motif|central (ssRNA)
RNA: GGGAGUUCUACAGUCCGACGAUCUCCUGAACUGCCUGGGGAUUUGGACCCACCCGUGCUGGUAGGUGGGGUGAAAGGUCGGUUAGAAGAACUGUGAGAUGGGGACUUCCCCUCAGUGUCUGCCUUCUUCCGCUUUGGAGGCUUCAACAGAGGAUUGAGCAUCA
B20: chrX:101157612:101157613:-_ENSMUSG00000056537_ENSMUST00000070705|mus_hu|FALSE|FALSE (ssRNA)
RNA: GGGAGUUCUACAGUCCGACGAUCUAUCAGUAACAGUGAUGCUACCAAUUUAACUGGUACGGAAAUCAGAUUUUUAGGUCCUAUAACGUGGCUUUUAAAAUAUUUCCUUUUAUUCUGGAACAAAAACUGGAGAAAGGACAAUGACAACAGAGGAUUGAGCAUCA
B21: chrX:131338992:131338993:-_ENSMUSG00000033436_ENSMUST00000035559|mus_mus|motif|central (ssRNA)
RNA: GGGAGUUCUACAGUCCGACGAUCUAUCACAGAUAACAUCACUCUGAAUUAUUCAAACGUGGCAUCUGAAUAAUUCCUGUACGGCACACACAAGUAGAAAAACAAUAGUGUCUCACUGUUAAUGCUUCCCGAGUGUAAAACCGACAACAGAGGAUUGAGCAUCA
B22: chrX:71549762:71549763:+_ENSMUSG00000019087_ENSMUST00000019231|mus_mus|mus_mus_mus_hu_False|58_108 (ssRNA)
RNA: GGGAGUUCUACAGUCCGACGAUCAAAGUGUACCACUUCUUAUUGUUAGCACAACAUCACCAGAAAACGAUAACGACAGCUAAGCUGGACAGACAGUUAAGUAGUACUUCCACACUCCCAAACUCAGGGAGCCCUAUAACCUUACAACAGAGGAUUGAGCAUCA

Target: T1, UNK ZnF1-3 (human, UniProt Q9C0B0 31-174)
T1 sequence: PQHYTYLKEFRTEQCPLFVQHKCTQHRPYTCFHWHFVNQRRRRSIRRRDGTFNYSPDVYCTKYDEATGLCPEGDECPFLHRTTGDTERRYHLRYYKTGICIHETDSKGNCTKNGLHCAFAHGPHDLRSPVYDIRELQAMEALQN
Assay: nsRBNS (natural sequence RNA bind-n-seq); RBNS binding buffer (assumed for nsRBNS): 25 mM Tris pH 7.5, 150 mM KCl, 3 mM MgCl2, 0.01% Triton X-100, 500 ug/ml BSA, 20 U/ml SUPERase-In, 4 C; UNK is unkempt and MSI1 is Musashi-1; names of the RNAs are library labels; protein concentration not given here; high values mean tight binding

| Binder | binding signal [enrichment R] |
| --- | --- |
| B1 | 0.73 |
| B2 | 0.941 |
| B3 | 1.49 |
| B4 | 0.597 |
| B5 | 1.11 |
| B6 | 1.69 |
| B7 | 0.888 |
| B8 | 1.76 |
| B9 | 0.846 |
| B10 | 0.842 |
| B11 | 1.37 |
| B12 | 0.864 |
| B13 | 0.716 |
| B14 | 0.372 |
| B15 | 0.76 |
| B16 | 1.23 |
| B17 | 1.04 |
| B18 | 0.831 |
| B19 | 0.975 |
| B20 | 0.86 |
| B21 | 0.704 |
| B22 | 1.05 |
